Results on 57 molecules are retold here after PubChem BioAssay AID463173 (ICCB-Longwood Screening Facility, Harvard Medical School, 2010).

The campaign covered roughly 52,000 compounds. About 1,700 (3.3%) were called active. Cut-off read from the data, not from the text of the source: active = survival mostly below about 52% (no sharp cut-off); inactive = mostly above about 56%. Some of the results follow.

This experiment concerns Wild type. In words: S. aureus survival, RN4220 and DeltatarO strains – OD600, teichoic acid synthesis inhibitors, primary screen (AID 463173). To be noted: S. aureus RN4220 wild type/DeltatarO growth, OD600, 18 h, hits give low values, screened at 18.75 µg/mL (by protocol).
For the molecule `Cc1cccc(NC(=O)c2ccc(-n3c(C)nnc3C)cc2)c1`, the survival is inactive: 92%.

Turning to `Cc1ccc(-n2ncc3c(N4CCCCCC4)ncnc32)cc1Cl`, the survival is inactive: 73%.

On to `COc1ccccc1CNC(=O)CCc1c(C)nc2cc(-c3ccc(Cl)cc3)nn2c1C`, for which the survival is inactive: 141%.

With `COc1ccccc1CN1CCC(CNC(=O)c2cnn(-c3ccccc3Cl)c2C2CCN(C(=O)OC(C)(C)C)CC2)CC1`, the survival is inactive: 60%.

For `CC1=NN(c2cccc3ccccc23)C(=O)C1`, the survival is inactive: 48%.

On to `CCC(=O)Nc1ccc(Cl)c(-c2nc3ccccc3[nH]2)c1`, for which the survival is inactive: 79%.

Regarding `CCn1c(COc2ccc(Cl)cc2Cl)nc2ccccc21`, the survival is inactive: 78%.

Regarding `CCc1ccccc1NC(=O)c1cn(C)c(=O)c2ccccc12`, the survival was inactive: 93%.

Take `O=S(=O)(c1ccc(F)cc1)N1CCC(Oc2cccc(C(F)(F)F)c2)CC1`: the survival is inactive: 86%.

`COc1c(Cl)cc(Cl)cc1C(=O)Nc1cccc(-c2nc3ccccc3o2)c1C`: the survival was inactive: 125%.

Take `COc1ccc(CCNC(=O)CCCn2c(=O)c3ccccc3n(Cc3ccccc3)c2=O)cc1OC`: the survival was inactive: 95%.

Consider `COc1cccc(CNC(=O)C(=O)NCC(c2cccs2)S(=O)(=O)c2ccccc2)c1` (configuration not stated), for which the survival is inactive: 136%.

On to `Cc1cccc(N2CCN(C(=O)c3ccc4c(c3)N(Cc3ccccc3)C(=O)c3ccccc3S4(=O)=O)CC2C)c1` (configuration not stated), for which the survival was inactive: 80%.

Take `Cc1c2cnn(-c3ccccc3)c(=O)c2c(C)n1C(C)C(=O)Nc1ccccc1C(F)(F)F` (configuration not stated): the survival is inactive: 81%.

As for `Cc1cccc(CCNC(=O)c2cc(S(=O)(=O)N3CCCCC3)c[nH]2)c1`, the survival is inactive: 92%.

Consider `COc1ccc(CCN2C(=O)N(c3cccc(C)c3)C(=O)C2CC(=O)Nc2ccccc2)cc1OC` (configuration not stated), for which the survival is inactive: 75%.

For `Clc1ccc(CCNc2nc3cc(Cl)c(Cl)cc3n3cnnc23)cc1`, the survival is inactive: 93%.

In the case of `CCn1c(=O)ccc2cc(OC)ccc21`, the survival is inactive: 105%.

Turning to `Cc1ccc(C)c(NC(c2ccccc2)c2nnc(-c3ccccc3F)o2)c1` (configuration not stated), the survival is active: 5%.

Take `COc1ccc(-c2nnc(SCC(=O)N3CCC(C)CC3)o2)cc1`: the survival is inactive: 71%.

`COc1ccc(-c2nnc(C3CCN(S(=O)(=O)c4cccc(Cl)c4)CC3)o2)cc1`: the survival was inactive: 78%.

As to `COc1cc(-c2nc(SCC(=O)Nc3ccc4c(c3)OCO4)c(-c3ccccc3)[nH]2)cc(OC)c1OC`, the survival is inactive: 63%.

For the molecule `COc1ccccc1CNC(=O)CSc1ncc(S(=O)(=O)c2ccc(C)c(Cl)c2)c(=O)[nH]1`, the survival was inactive: 135%.

On to `C[N+](C)(C)CCNC(=O)c1ccc(/C=N/O)nc1`, for which the survival was inactive: 114%.

Take `COc1ccc(OCCn2c(NC(=O)c3ccc(OC)cc3)nc3ccccc32)cc1`: the survival was active: -13%.

For `CCC1(CC)Cc2ccccc2-c2nc(NN)n(Cc3ccccc3)c(=O)c21`, the survival was inactive: 112%.

Turning to `COCCCNC(=O)C1CCN(Cc2cc3ccccc3n2Cc2cccc(C)c2)CC1`, the survival is inactive: 77%.

Take `CNC(=O)C1CCC(Cn2c(=O)c3sccc3n(CC(=O)N3CCCC(C)C3)c2=O)CC1` (configuration not stated): the survival is inactive: 78%.

With `CCCCOC(=O)c1c(C)oc2c1cc(NS(=O)(=O)c1cc(OC)ccc1OC)c1ccccc12`, the survival was inactive: 66%.

As for `CCOc1ccc(-c2nnc(SCC(=O)Nc3cccc(C#N)c3)o2)cc1`, the survival was inactive: 58%.

With `COc1ccc(-c2c(C)c3ccc(O)c(CN4CCOCC4)c3oc2=O)cc1OC`, the survival was inactive: 152%.

Take `COc1cccc(NC(=O)Nc2ccc3c(c2)N(C)C(=O)c2ccccc2S3)c1`: the survival is inactive: 53%.

With `CC1CCN(C(=O)Cn2c(-c3cccs3)cc3cc(Cl)ccc32)CC1`, the survival was inactive: 83%.

Take `CCCN1Cc2cccc(C(=O)Nc3cc(Cl)ccc3C)c2C1=O`: the survival is inactive: 91%.

Regarding `Cc1cc(C)c2c(c1)c(C)cc1nnc(SCC(=O)c3ccccc3)n12`, the survival was inactive: 78%.

`Cc1ccc(C)c(NC(=O)C(CC(C)C)N2Cc3ccccc3C2=O)c1` (configuration not stated): the survival is inactive: 159%.

For the molecule `O=C(CSc1nccn1Cc1ccc(F)cc1)NCc1ccco1`, the survival is inactive: 67%.

Regarding `Cc1cccc(NC(=O)c2sc3ncnc(N(C)C4CCCCC4)c3c2C)c1C`, the survival was inactive: 128%.

Regarding `CC(C)(C)c1ccc(C(=O)Nc2ccc(-c3nc4ccccc4o3)c(O)c2)cc1`, the survival was inactive: 72%.

Regarding `O=C(CN1C(=O)c2ccccc2Sc2ccc(C(=O)N3CCOCC3)cc21)Nc1ccc(Cl)cc1F`, the survival was inactive: 73%.

Turning to `CCN1CCN(Cc2c(O)ccc3oc(C)c(C(=O)Nc4cccc(C(F)(F)F)c4)c23)CC1`, the survival was inactive: 116%.

On to `COc1cccc(NC(=O)c2c(C)oc3nc(C)nc(N4CCCC4)c23)c1`, for which the survival was inactive: 53%.

For the molecule `CCN(CC)c1ccc2cc(-c3nc4sc5c(c4c(=O)[nH]3)CCC(C(C)(C)C)C5)c(=O)oc2c1` (configuration not stated), the survival is inactive: 84%.

On to `O=C(NCc1ccco1)Nc1ccccc1`, for which the survival was inactive: 109%.

As to `Cc1cccc(C)c1NC(=O)c1cc(S(=O)(=O)N2CCc3ccccc3C2)ccc1F`, the survival is inactive: 152%.

Turning to `CCC(=O)N1CCc2cc(S(=O)(=O)CCC(=O)N3CCN(c4cccc(C)c4C)CC3)ccc21`, the survival is inactive: 79%.

As to `COc1ccc(CC(=O)Nc2nc3c(s2)CCCC3)cc1`, the survival is inactive: 100%.

On to `Cc1ccc2c(c1)N(C(=O)CCC(=O)NCc1cccc(F)c1)CC(C)O2` (configuration not stated), for which the survival is inactive: 86%.

On to `CCOC(=O)c1cccc(NC(=O)CCS(=O)(=O)c2ccc3c(c2)CCN3C(=O)CC)c1`, for which the survival is inactive: 89%.

On to `O=C(c1ccc(Cl)cc1)n1nc(-c2cccnc2)nc1NCc1ccc(F)cc1`, for which the survival is inactive: 68%.

`COc1cccc2cc(-c3nc(-c4ccc(Cl)cc4)cs3)c(=O)oc12`: the survival was inactive: 88%.

For `CCOc1ccc(-c2cc3c(=O)n(CC(=O)NCc4ccc(F)cc4)ccn3n2)cc1`, the survival was inactive: 71%.

Regarding `CCn1c(=O)c2sccc2n2c(CCCC(=O)N3CCN(c4ccc(F)cc4)CC3)nnc12`, the survival was inactive: 99%.

In the case of `COC(=O)c1oc2nc(C)cc(C)c2c1N`, the survival was inactive: 128%.

As to `CC(=O)c1cccc(NC(=O)c2ccc3nc(Cc4ccccc4)oc3c2)c1`, the survival is inactive: 45%.

With `O=C(CSc1ncccc1C(=O)Oc1ccccc1Cl)Nc1ccc(C(F)(F)F)cc1Cl`, the survival is inactive: 85%.

For `CCOC(=O)c1c(C)[n+]([O-])c2ccc3c(non3O)c12`, the survival is inactive: 94%.
